Reference: PMC4336329 (PLoS ONE, 2015)
Screen size: about 310,000 compounds; about 2,200 (0.71%) showed an effect of 50% or more. The effect is printed as a negative number. This is one part of the list.

molecular target: human ether-à-go-go-related gene (hERG) potassium channel (human, UniProt Q12809); assay: primary screen, population patch clamp on CHO cells stably expressing hERG
Sequence (Q12809 whole entry, looked up): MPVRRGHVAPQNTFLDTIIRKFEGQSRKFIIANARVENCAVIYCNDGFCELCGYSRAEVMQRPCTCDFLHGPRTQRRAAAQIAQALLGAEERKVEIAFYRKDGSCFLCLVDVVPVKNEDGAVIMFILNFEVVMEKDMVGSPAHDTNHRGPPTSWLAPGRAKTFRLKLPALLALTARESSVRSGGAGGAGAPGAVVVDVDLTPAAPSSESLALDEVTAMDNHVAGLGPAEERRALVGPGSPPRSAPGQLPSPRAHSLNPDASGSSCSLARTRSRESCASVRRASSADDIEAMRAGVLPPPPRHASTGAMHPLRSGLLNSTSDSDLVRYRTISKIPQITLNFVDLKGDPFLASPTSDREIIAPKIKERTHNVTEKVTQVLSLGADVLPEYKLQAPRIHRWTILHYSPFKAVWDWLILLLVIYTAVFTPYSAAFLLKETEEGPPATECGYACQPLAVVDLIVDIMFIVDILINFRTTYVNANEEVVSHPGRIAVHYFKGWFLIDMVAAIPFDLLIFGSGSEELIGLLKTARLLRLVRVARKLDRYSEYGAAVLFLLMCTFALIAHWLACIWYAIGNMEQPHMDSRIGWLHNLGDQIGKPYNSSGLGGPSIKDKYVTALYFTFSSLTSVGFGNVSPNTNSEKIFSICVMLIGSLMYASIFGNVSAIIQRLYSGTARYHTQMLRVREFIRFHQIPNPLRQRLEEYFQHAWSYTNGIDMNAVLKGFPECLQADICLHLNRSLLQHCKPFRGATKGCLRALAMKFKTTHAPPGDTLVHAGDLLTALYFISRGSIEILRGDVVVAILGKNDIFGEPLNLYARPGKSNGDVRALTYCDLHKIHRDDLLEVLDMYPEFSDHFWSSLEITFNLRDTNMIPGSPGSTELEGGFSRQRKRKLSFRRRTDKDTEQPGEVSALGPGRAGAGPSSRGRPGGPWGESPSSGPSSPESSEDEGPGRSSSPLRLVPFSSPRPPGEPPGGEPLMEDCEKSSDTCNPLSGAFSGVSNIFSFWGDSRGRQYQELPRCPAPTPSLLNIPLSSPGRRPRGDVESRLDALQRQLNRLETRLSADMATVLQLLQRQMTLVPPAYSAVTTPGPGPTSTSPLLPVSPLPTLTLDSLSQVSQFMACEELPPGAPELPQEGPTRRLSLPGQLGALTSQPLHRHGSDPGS

SMILES | hERG current change (%, negative = inhibition) at 1uM [%]
CCn1c(CN2CCOCC2)nnc1SCC(=O)Nc1ccc(C(C)=O)cc1 | 11.2
Cc1cccc(-c2noc(CCC(=O)NC3CCCCC3)n2)c1 | 4.84
COc1ccc(C2CC(c3cccs3)=NN2C(=O)COC(=O)c2cc3ccccc3cc2O)cc1OC (stereo not drawn) | 5
CC(C(=O)N1CCCc2ccccc21)N1CCN(S(=O)(=O)c2ccccc2F)CC1 (stereo not drawn) | 1.16
COc1cc(CC(=O)OCC(=O)Nc2ccccc2C#N)cc(OC)c1OC | 6.64
O=C1c2cc(Cl)ccc2OC2(CCNCC2)C12CC(c1ccc(Cl)cc1)=NO2 (stereo not drawn) | 7.36
CCc1n[nH]c2c1/C(=N/O)CCC2 | -3.49
OC1(c2cccs2)CN(c2ccc(Cl)cc2)C2=[N+]1CCCC2.[Br-] (stereo not drawn) | -13.7
CC1CCCN(C(=O)Cn2c(=O)oc3cc(S(=O)(=O)N4CCCCC4)ccc32)C1 (stereo not drawn) | 9.18
CSc1nc2ccc(NS(=O)(=O)c3ccc(Br)s3)cc2s1 | 15.9
COc1ccccc1CNC(=O)CSc1nnc2c(Cl)cc(C(F)(F)F)cn12 | 3.91
Cc1ccc(CNC(=O)CCCc2c[nH]c3ccccc23)cc1 | 3.99
O=C(CCN1C(=O)c2ccccc2S1(=O)=O)Nc1ccc2c(c1)OCCO2 | 14.9
O=C1c2ccccc2C2(c3cc(C(F)(F)F)cc(C(F)(F)F)c3)NCCN12 (stereo not drawn) | 14.2
CN1C(C(=O)NCCc2cccs2)CC2Cn3c(nc4cc(Cl)c(Cl)cc43)C21 (stereo not drawn) | -11.5
CCOc1ccc(S(=O)(=O)NCCCn2ccnc2)cc1NC(C)=O | 5.15
S=C(NCCN1CCOCC1)N/N=C/c1cccs1 | 9.94
CC(=O)c1ccc(NC(=O)CSc2nnc(NC(=O)c3ccco3)s2)cc1 | -10.7
COC(=O)c1cc(NC(=O)c2cc(C(C)(C)C)nn2Cc2cccc(C)c2)ccc1N1CCOCC1 | 12.4
O=C(NCCc1ccccc1)C1CCN(C(=O)c2ccc([N+](=O)[O-])cc2)CC1 | -21.5
O=C(CCC(=O)OCC(F)(F)C(F)F)Nc1ccc(Cl)cc1 | -6.83
CC(C)(C)C(=O)c1cn(CC(=O)O)c2ccccc12 | 10
N/C(=N\OC(=O)Cc1ccc(-c2ccccc2)cc1)c1cccc([N+](=O)[O-])c1 | 14.6
COc1ccc(C(CNC(=O)c2oc3ccc(F)cc3c2C)N2CCCCC2)cc1 (stereo not drawn) | 2.33
